Measurements taken from PMC4336329 (PLoS ONE, 2015).
Among all 310,000 compounds or so, about 14,000 (4.5%) showed an effect of 50% or more. The effect is printed as a negative number. The list shows a part of the results.

Biological target: human ether-à-go-go-related gene (hERG) potassium channel (human, UniProt Q12809)
Assay: primary screen, population patch clamp on CHO cells stably expressing hERG
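Note: peak tail current of the secondary pulse compared with the same well before compound.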

Sequence of human ether-à-go-go-related gene (hERG) potassium channel (Q12809 whole entry, looked up): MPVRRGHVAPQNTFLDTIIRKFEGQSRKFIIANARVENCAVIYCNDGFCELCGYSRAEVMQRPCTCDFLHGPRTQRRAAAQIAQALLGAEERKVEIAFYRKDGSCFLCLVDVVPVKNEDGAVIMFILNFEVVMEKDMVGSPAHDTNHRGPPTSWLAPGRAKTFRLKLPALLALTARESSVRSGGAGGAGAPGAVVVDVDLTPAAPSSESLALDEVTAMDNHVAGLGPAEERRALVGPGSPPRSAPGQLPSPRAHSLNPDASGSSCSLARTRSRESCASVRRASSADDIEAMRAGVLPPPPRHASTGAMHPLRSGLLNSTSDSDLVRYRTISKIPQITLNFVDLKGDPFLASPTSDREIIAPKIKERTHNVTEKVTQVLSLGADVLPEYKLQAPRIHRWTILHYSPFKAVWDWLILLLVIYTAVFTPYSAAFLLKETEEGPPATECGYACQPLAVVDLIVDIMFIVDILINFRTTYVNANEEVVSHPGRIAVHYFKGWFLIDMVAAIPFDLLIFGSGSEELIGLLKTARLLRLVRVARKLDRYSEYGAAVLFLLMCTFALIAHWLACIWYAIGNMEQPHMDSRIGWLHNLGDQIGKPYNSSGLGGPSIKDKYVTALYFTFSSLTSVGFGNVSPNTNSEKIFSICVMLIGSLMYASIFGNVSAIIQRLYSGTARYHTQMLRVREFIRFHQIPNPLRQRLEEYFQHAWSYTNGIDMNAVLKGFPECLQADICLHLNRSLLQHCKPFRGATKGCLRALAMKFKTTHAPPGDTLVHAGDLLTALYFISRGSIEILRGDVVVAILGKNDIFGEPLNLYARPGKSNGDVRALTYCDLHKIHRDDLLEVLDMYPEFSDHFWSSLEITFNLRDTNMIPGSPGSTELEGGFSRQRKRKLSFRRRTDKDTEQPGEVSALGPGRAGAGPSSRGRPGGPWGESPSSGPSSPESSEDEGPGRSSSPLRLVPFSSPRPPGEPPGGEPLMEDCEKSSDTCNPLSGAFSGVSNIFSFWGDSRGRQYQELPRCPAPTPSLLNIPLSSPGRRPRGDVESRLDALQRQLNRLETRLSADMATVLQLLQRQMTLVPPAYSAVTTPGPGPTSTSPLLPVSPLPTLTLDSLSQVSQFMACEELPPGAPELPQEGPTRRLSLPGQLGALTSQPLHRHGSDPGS

SMILES	hERG current change (%, negative = inhibition) at 10uM [%]
O=C(NCc1ccc2c(c1)OCO2)C1CC(c2ccc(Cl)c(Cl)c2)=NO1 (stereo not shown)	15
Cc1cccc(NS(=O)(=O)c2ccc(C(=O)NCCCN3CCCC3=O)cc2)c1C	4.04
O=C(CCC1CCCN(C(=O)Cn2cnnn2)C1)NCc1ccc(F)c(F)c1 (stereo not shown)	3.81
CC(C)c1nnc(NC(=O)C2CCCN2C(=O)Nc2ccccc2F)s1 (stereo not shown)	-19.4
CCOC(=O)Cc1cc(=O)[nH]c(=O)[nH]1	20.2
CCOc1ccccc1C1C(C(N)=O)=C(C)Nc2nc(-c3cccc(C)c3)nn21 (stereo not shown)	3.39
Cc1cccc(CSCCNC(=O)Nc2ccccc2)c1	-1.65
Cc1nnc(NC(=O)c2ccccc2-c2ccccc2C(=O)O)s1	24.8
Cc1ccc(NC(=O)C2CC(=O)N(Cc3ccccc3)C2)cc1S(=O)(=O)N1CCCCCC1 (stereo not shown)	-20.6
O=C(CN1C(=O)NC(Cc2ccccc2)C1=O)Nc1ccccc1OC(F)F (stereo not shown)	-5.53
Cn1c(C(=O)N2CCCc3ccccc32)cc2c(=O)n3ccccc3nc21	-8.76
Cc1cc(/C=C2\SC(N)=NC2=O)c(C)n1-c1ccccc1	7.5
CCOc1cc(-n2cnnn2)c(OCC)cc1NC(=O)c1cnccn1	3.01
Nc1nc2ccc(C(=O)N3CCCCC3)cc2s1	0.471
COc1ccc(N2CCN(C(=O)CN3C(=O)c4ccccc4S3(=O)=O)CC2)cc1	15.4
Clc1ccccc1OCc1nc(-c2ccncc2)no1	-12.4
CC(NCc1ccc2c(c1)OCO2)C(=O)NC1CCCCC1.O=C(O)C(=O)O (stereo not shown)	28.3
CN(Cc1nc(Cc2ccccc2F)no1)CC1(N2CCOCC2)CCCCC1	-62.8
CCCC(=O)c1ccc(N2CCC(C)CC2)c(F)c1	-22.8
CCN(CC)CCCN(C(=O)c1ccccc1F)c1nc(-c2ccc(OC)cc2)cs1	-71.4
Cc1ccc(CN2CCN(Cc3cccn3-c3ccc(Cl)cn3)CC2CCO)o1 (stereo not shown)	-23.3
O=C1CCN(Cc2ccc(Br)cc2)CCN1[C@H](CO)c1ccccc1	-3.45

SMILES	hERG current change (%, negative = inhibition) at 10uM [%]
O=C(c1cc(COc2c(F)cccc2F)on1)N1CCN(C2CCCCC2)CC1	-52
C/C(N)=C(/C#N)C(=O)CSc1nncn1-c1ccccc1	4.71
COCCN(C(=O)COc1ccccc1)c1nnc(-c2cccnc2)s1	-5.62
CCOc1ccc(NC(=O)CSc2nc(N)c(-c3ccccc3)c(=O)[nH]2)cc1	17.3
COC1(OC)C(/C=C/c2ccc(Cl)cc2)C(C#N)(C#N)C1(OC)OC (stereo not shown)	5.66
Cc1[nH]c2ccccc2c1/C=N/Nc1ccc([N+](=O)[O-])cc1	3.95
Fc1cccc(CSc2ccc3nnc(-c4ccccn4)n3n2)c1	-77.9
COc1ccc(-c2nc(CC(=O)Nc3cccc(S(=O)(=O)NC4=NCCC4)c3)cs2)cc1	3.68
CCN1CCN(C(=O)c2ccc3nc(-c4ccccc4)c(-c4ccccc4)nc3c2)CC1	-17.4
Cc1cc(C)c2c(=O)[nH]cnc2n1	6.28
COC(=O)c1ccccc1NC(=S)NC(=O)c1cccc2ccccc12	14.3
Fc1ccccc1-c1nnc2ccc3ccccc3n12	3.52
Cl.O=C(CN1CCN(c2ncccn2)CC1)NCCC1=CCCCC1	-10.4
Fc1cc(Br)ccc1Nc1nc2ccccc2n2nnnc12	-4.72
Nn1c(Cc2cccc3ccccc23)nnc1SCc1ccccc1	0.216
N#Cc1ncc(C(F)(F)F)cc1Oc1cccnc1	1.44
Cc1cc(SC(C)C(=O)Nc2ncc(Cl)cc2Cl)nc2ccccc12 (stereo not shown)	22.8
CC(=O)Nc1ccc(NC(=O)CN(C)CC(=O)Nc2ccccc2Br)cc1	-5.24
Oc1ccc(/C=N/N2CCCCC2)cc1O	5.46
CCOc1ccccc1NC(=O)CCN1CCN(S(=O)(=O)c2ccc(OC)cc2)CC1	-2.27
O=C(N/N=C/c1ccccc1O)c1cc[n+]([O-])cc1	19.4
CCOC(=O)c1sc(=S)n(Cc2ccccc2)c1N	-3.73

SMILES	hERG current change (%, negative = inhibition) at 10uM [%]
Cc1ccc(-c2nc(CS(=O)(=O)CC(=O)N3CCCCCC3)c(C)o2)cc1	-14.1
COC(=O)c1ccc(NC(=O)c2ccc[n+]([O-])c2)cc1	19.1
COc1cccc(N2CC(C)Cn3c2nc2c3c(=O)[nH]c(=O)n2C)c1 (stereo not shown)	-1.59
Cc1ccc(NC(=O)CSc2nnc(CNC(=O)c3ccco3)n2C)cc1C	-3.26
NS(=O)(=O)c1ccc(N/N=C2/CCCCC2C2CCCCC2)c([N+](=O)[O-])c1 (stereo not shown)	17.7
COc1ccc(S(=O)(=O)N(CC(=O)NCC2CCCO2)C2CCCCC2)cc1OC (stereo not shown)	3.59
Cc1cc(C)cc(NC(=S)NCCc2c[nH]c3ccccc23)c1	-5.57
O=C(CSC1=Nc2ccccc2C2=NC(CC(=O)N3CCN(c4ccccc4)CC3)C(=O)N12)NCC1CCCO1 (stereo not shown)	-7.73
Cc1ccc([N+](=O)[O-])cc1S(=O)(=O)NCc1cccnc1	-14.7
CCCCn1c(N)c(N(CCOC)C(=O)c2ccc(S(=O)(=O)N3CCCCCC3)cc2)c(=O)[nH]c1=O	11.3
N#Cc1nc(-c2ccco2)oc1N1CCN(c2ccccc2)CC1	-62.9
Cn1nc(C(=O)N2CCc3ccccc32)c2ccccc2c1=O	9.27
Cc1nc(-c2nc(C(=O)NNS(C)(=O)=O)cs2)cs1	4.39
CC(=O)NCC(=O)N(c1ccccc1)C1(C(=O)NC2CCCCC2)CCCCC1	9.36
CCc1cccc2sc(NC(=O)c3ccc(N4C(=O)CCC4=O)cc3)nc12	26.4
O=C(COCc1cc(-c2ccc3c(c2)OCO3)on1)Nc1cccnc1	10
Cc1cc(NC(=O)c2ccccc2C)no1	14.8
c1ccc2oc(Cc3ccc(Cc4nc5ccccc5o4)cc3)nc2c1	-12.2
CCOC(=O)[C@@H]1[C@H]2COc3cc(OC)ccc3[C@@H]2N2C(=O)N(c3ccc(Br)cc3)C(=O)[C@@]12C	4.22
COc1cc(CNC(=O)c2ccc3oc(C(C)C)nc3c2)cc(OC)c1	-5.12
COc1ccc2nc(N(CCN(C)C)C(=O)c3ccc4c(c3)OCCO4)sc2c1.Cl	-35.3
C=CCNC(=S)N1CCN(c2cc3c(cc2F)c(=O)c(C(=O)O)cn3CC)CC1	6.11

SMILES	hERG current change (%, negative = inhibition) at 10uM [%]
O=C(O)/C=C/c1cccc(NC(=O)c2ccc(Cl)cc2)c1	15.5
COC(=O)C1=C(C)N(c2cccc(C)c2)C(=O)/C1=C\c1cccs1	4.08
Cc1ccc(NC(=O)CCc2nnc3ccc(N4CCC(C)CC4)nn23)nc1	-11.5
CN(C)CCCCOc1cccc(Br)c1.O=C(O)C(=O)O	-23.7
CN1CC(C(=O)c2ccc(Cl)cc2)C(c2ccc(Cl)cc2Cl)C1 (stereo not shown)	-49.2
Cc1ccccc1NC(=O)CN(C)S(=O)(=O)c1ccc2c(c1)n(C)c(=O)c(=O)n2C	-2.26
O=C(COc1ccccc1Cl)NCCNC(=O)c1ccncc1	20.5
Cc1c2cnn(CC(=O)NCc3ccccn3)c(=O)c2c(C)n1Cc1ccc(Cl)cc1	-47.9
COc1cccc(N2CC(C)Cn3c2nc2c3c(=O)n(CCN3CCOCC3)c(=O)n2C)c1 (stereo not shown)	-2.98
Nc1cc([N+](=O)[O-])cc2oc(-c3ccccc3)cc12	15.9
Fc1cccc(Nc2cc(-n3cccn3)ncn2)c1	2.01
Fc1ccc(N2CCN(Cc3cn[nH]c3-c3ccccc3)CC2)cc1	-59.2
O=C1NC(=O)C2(CCCCCCCCCCC2)N1	8.87
O=C(NC(=S)NCC1CCCO1)c1ccc(Cl)cc1Cl (stereo not shown)	0.566
CCOC(=O)c1[nH]ncc1CN1CCCC(C(=O)c2cc(Cl)ccc2OC)C1 (stereo not shown)	-71.1
Cc1ccc(S(=O)(=O)NC(=O)Nc2nccs2)cc1	12.7
CC(C)(C)NC(=O)NC(=O)CSc1nnc(COc2ccccc2Cl)o1	-4.3
O=C(Cc1ccccc1[N+](=O)[O-])NCCCN1CCOCC1	0.529
CCc1ccccc1N1CCN(S(=O)(=O)c2cc(OC)ccc2OC)CC1	-23.3
O=C(Nc1cccc(Br)c1)c1c(O)c2c(n(Cc3ccccc3)c1=O)CCCC2	5.83
Cc1ccc(NC(=O)c2c(Cl)n(C)c3ccccc23)cc1	-8.66
Cc1cc(C(=O)COC(=O)CNC(=O)c2ccc(F)cc2)c(C)n1Cc1ccco1	-12.3
